Screen size: about 350,000 compounds; about 31,000 (8.9%) were called active. This list was built around the results that the source calls inconclusive (neither active nor inactive); the mix of calls is not that of the screen. Calls come from the whole dose curve; as a rule, active = well fitted inhibition curve with a large enough effect; inconclusive = small, poorly fitted or top-dose-only effect; inactive = no such curve, though single readings can be large or run the other way. Potencies of inconclusive entries are doubtful fits and often do not repeat.
target: Histone-lysine N-methyltransferase EHMT2 (Homo sapiens) (UniProt Q96KQ7); assay: qHTS Assay for Inhibitors of Histone Lysine Methyltransferase G9a; settings: G9a H3K9 monomethylation, AlphaScreen, 2 h; activity, negative = inhibition: at 59 µM (top of the series) unless noted; note: nearly all actives have a fitted effect of over 75% in size
Chain of UniProt Q96KQ7 (Q96KQ7 whole entry, looked up): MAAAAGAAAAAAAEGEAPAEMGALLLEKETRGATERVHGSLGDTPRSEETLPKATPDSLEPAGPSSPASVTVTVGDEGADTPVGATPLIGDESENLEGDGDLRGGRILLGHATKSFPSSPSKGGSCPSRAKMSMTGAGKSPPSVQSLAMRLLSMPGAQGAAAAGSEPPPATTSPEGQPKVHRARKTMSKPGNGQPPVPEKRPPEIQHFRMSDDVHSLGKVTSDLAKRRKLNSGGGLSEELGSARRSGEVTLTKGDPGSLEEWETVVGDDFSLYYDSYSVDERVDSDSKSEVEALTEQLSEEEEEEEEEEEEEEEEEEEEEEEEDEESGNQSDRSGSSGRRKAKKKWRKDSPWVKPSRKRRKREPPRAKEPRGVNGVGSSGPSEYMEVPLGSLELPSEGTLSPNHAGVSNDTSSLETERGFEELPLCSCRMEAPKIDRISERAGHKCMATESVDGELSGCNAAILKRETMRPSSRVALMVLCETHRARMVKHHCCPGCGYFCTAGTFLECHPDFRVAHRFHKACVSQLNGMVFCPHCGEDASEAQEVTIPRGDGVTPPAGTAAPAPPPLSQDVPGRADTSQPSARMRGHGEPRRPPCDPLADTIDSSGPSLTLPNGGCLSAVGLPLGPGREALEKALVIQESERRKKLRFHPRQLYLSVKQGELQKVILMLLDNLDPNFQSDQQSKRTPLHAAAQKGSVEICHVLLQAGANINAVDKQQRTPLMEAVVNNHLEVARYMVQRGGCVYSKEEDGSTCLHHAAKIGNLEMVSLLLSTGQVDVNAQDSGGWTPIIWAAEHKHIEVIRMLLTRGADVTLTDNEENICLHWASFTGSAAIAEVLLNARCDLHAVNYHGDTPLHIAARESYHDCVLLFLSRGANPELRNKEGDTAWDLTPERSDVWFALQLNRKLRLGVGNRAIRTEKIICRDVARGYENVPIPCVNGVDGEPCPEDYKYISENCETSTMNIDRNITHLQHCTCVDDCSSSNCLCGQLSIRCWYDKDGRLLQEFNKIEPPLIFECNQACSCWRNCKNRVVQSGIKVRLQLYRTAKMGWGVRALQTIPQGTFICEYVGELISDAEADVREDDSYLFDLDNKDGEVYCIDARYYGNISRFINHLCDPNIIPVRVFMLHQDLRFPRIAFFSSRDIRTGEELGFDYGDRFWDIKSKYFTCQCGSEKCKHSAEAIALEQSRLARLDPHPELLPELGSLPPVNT
In short: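 Using a bead-based AlphaScreen, monomethylated H3K9 product from 2 h room-temperature reactions (G9a 20 nM, peptide 500 nM, SAM 20 uM) was detected with 0.5 ug/mL rabbit anti-H3K9me1 antibody.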
% is set by controls: 0 for no effect and ±100 for the full control effect; potency is the fitted concentration of half-maximal effect; tags give direction and shape of the fitted curve.

SMILES | Potency | activity, negative = inhibition
Oc1c(Br)cc(Br)cc1CN1CCN(Cc2ccccc2)CC1 | active: 44.7 µM | –
CNCCc1c(C)n[nH]c1C | inconclusive: 79.4 µM [inhibitor, partial curve, poor fit] | –
CCCN(CCC)[C@H]1CCc2c(F)ccc(O)c2C1 | active: 50.1 µM | –
CCCCn1c(O)c(C(CC)=Nc2ccc(C(=O)O)cc2)c(=O)[nH]c1=O | inconclusive: 39.8 µM [inhibitor, single point] | –
CC1C(=O)OC2C(O)C34C5OC(=O)[C@@]3(OC3OC(=O)[C@H](O)[C@]34C(C(C)(C)C)C5O)[C@]12O (some centres undefined) | – | inactive: -10.5% [at 2.33 µM]
O=C(COc1ccc(Cl)cc1)N(c1ccccc1Cl)C1CN2CCC1CC2 (centres undefined) | – | inconclusive: -59.4% [inhibitor]
O=C(N/N=C/c1c(O)n(-c2ccccc2)c(=S)[nH]c1=O)c1ccccc1 | inactive | –
Cn1c(O)c(C2=NN(C(=O)CCl)C(c3ccccc3)C2)c(=O)n(C)c1=O (centres undefined) | active: 31.6 µM | –
N#Cc1c(Cl)c(Cl)c(Cl)c(C#N)c1Cl | – | inconclusive: -66.9% [inhibitor] [at 2.33 µM]
c1ccc(Nc2ccc(Nc3ccccc3)cc2)cc1 | – | inactive: 9.76% [at 0.501 µM]
CCOc1cccc(OCC)c2c(C)[n+](CC3CCCO3)c(C)c1-2 (centres undefined) | inconclusive: 3.55 µM [inhibitor, single point] | –
CN(C)c1ccc(-[n+]2c(-c3ccccc3)cc(-c3ccccc3)cc2-c2ccccc2)cc1 | inconclusive: 25.1 µM [inhibitor, single point] | –
O=C1CC(N2CC=C(c3ccc(F)cc3)CC2)C(=O)N1c1ccc(F)cc1 (centres undefined) | active: 25.1 µM | –
CC(=O)c1ccc2c(c1)C1C(Cl)C(Sc3ccccc3[N+](=O)[O-])CC1C(C(=O)O)N2 (centres undefined) | active: 7.94 µM | –
CCOc1ccc(CN(CCc2ccc3c(c2)OCO3)Cc2cccc(Br)c2)cc1 | inconclusive: 1.58 µM [inhibitor, full curve, poor fit] | –
CCC1CO/C(=C(\C(Cl)=C(Cl)Cl)[N+](=O)[O-])N1Cc1ccc(Cl)nc1 (centres undefined) | inconclusive: 89.1 µM [inhibitor, single point] | –
COc1ccc(N2CCN(C(=O)c3cc(=O)[nH]c4ccccc34)CC2)cc1 | inconclusive: 39.8 µM [inhibitor, partial curve, poor fit] | –
CC(C)c1ccc(N=Cc2c(O)n(C3CC3)c(=S)[nH]c2=O)cc1 | inconclusive: 5.01 µM [inhibitor, partial curve, poor fit] | –
Nn1c(COc2ccc(Cl)cc2)n[nH]c1=S | active: 1.78 µM | –
O=C(O)c1cc(O)c(O)c(O)c1 | active: 2 µM | –
Cc1[nH]c2ccccc2c1CN(C)C | – | inactive: -36.9% [at 2.33 µM]
Cc1cc(C(=O)OCC(=O)Nc2ccc(F)cc2)c(C)n1C1CC1 | inactive | –
CC(=O)Nc1ccc(C2CN(C)CC2C(=O)c2ccc(Cl)cc2)cc1 (centres undefined) | inconclusive: 31.6 µM [inhibitor, partial curve] | –

SMILES | Potency | activity, negative = inhibition
Cc1cccc(CNCCc2ccccc2)n1 | inconclusive: 39.8 µM [inhibitor, single point] | –
CSCCC(=O)Nc1cc(S(=O)(=O)N2CCOCC2)ccc1N1CCN(C)CC1 | inconclusive: 39.8 µM [inhibitor, partial curve, poor fit] | –
COC(=O)c1ccc(NC(=O)CSc2nc3ccc(N4C(=O)C5C6C=CC(C6)C5C4=O)cc3s2)cc1 (centres undefined) | inconclusive: 39.8 µM [inhibitor, single point] | –
COc1ccc(-n2c(O)c(C(C)=NC3CC3)c(=O)[nH]c2=O)cc1 | inconclusive: 0.398 µM [inhibitor, partial curve, poor fit] | –
CN(C)C(=O)Oc1ccc([N+](=O)[O-])cc1 | inconclusive: 89.1 µM [inhibitor, partial curve, poor fit] | –
Cc1ccc(-c2cn3c(=S)[nH]nc3s2)cc1 | active: 1 µM | –
O=C1CCCN1C(=O)c1cncc(Br)c1 | inactive | –
CC(C)OP(=O)(OC(C)C)C(O)c1ccccc1F (centres undefined) | inactive | –
CCOC(=O)c1ccc(N=C(c2ccccc2)c2c(O)n(C)c(=O)n(C)c2=O)cc1 | active: 50.1 µM | –
CCOP(=O)(OCC)c1nc(-c2ccc(C)cc2)oc1NCc1ccccc1 | inconclusive: 35.5 µM [inhibitor, single point] | –
c1ccc2c(CN3CCCCCCC3)c[nH]c2c1 | inconclusive: 25.1 µM [inhibitor, single point] | –
O=C(CNC(=O)c1ccc(Br)cc1)NCC(=O)OCC(=O)c1ccc([N+](=O)[O-])cc1 | inconclusive: 8.91 µM [inhibitor, full curve, poor fit] | –
O=C(COC(=O)c1cccc(NC(=O)c2ccc(Br)cc2)c1)c1ccc(Br)cc1 | inconclusive: 35.5 µM [inhibitor, single point] | –
CC1OC(OC2C(O)CC(OC3C(O)CC(OC4CCC5(C)C(CCC6C5CCC5(C)C(C7=CC(=O)OC7)CCC65O)C4)OC3C)OC2C)CC(O)C1O (centres undefined) | inactive | –
O=C(c1csnn1)N1CCC2(CC1)CN(Cc1ccncc1)C2 | – | inactive: 11.6% [at 12.7 µM]
CCCCCCCCCCCCCCCCOC[C@@H](O)COP(=O)([O-])OCC[N+](C)(C)C | inactive | –
CC(C)c1cc2c(c(O)c1O)[C@@]1(C(=O)O)CCCC(C)(C)[C@@H]1CC2 | active: 3.55 µM | –
COc1cccc(CSc2nc(-c3ccccc3OC)nc3c2Cc2c(CO)cnc(C)c2O3)c1 | inconclusive: 22.4 µM [inhibitor, partial curve, poor fit] | –
O=C(c1cc(C(=O)NCc2ccc(Cl)cc2)c(=O)n(Cc2ccc(Cl)cc2)c1)c1cc(F)ccc1O | inconclusive: 28.2 µM [inhibitor, single point] | –
CCOC(=O)C1C(=O)NC2(C)CC1c1cc(OC)ccc1O2 (centres undefined) | inconclusive: 39.8 µM [inhibitor, single point] | –
COc1cccc(CCNCc2cccc(C(F)(F)F)c2)c1 | active: 10 µM | –
O=[N+]([O-])c1cc(F)c(N2CCCC2)cc1Br | inconclusive: 22.4 µM [inhibitor, partial curve, poor fit] | –
COc1ccc(C2=NCC(=O)N(CC(=O)NCc3ccco3)c3sc4c(c32)CCCC4)cc1 | inconclusive: 50.1 µM [inhibitor, partial curve, poor fit] | –

SMILES | Potency | activity, negative = inhibition
COc1ccc(-c2cc(=Nc3cccc(C(=O)O)c3)c3cc(C)ccc3o2)cc1 | inconclusive: 63.1 µM [inhibitor, partial curve, poor fit] | –
CCCc1cc(N2CCN(c3ccc(OC)cc3)CC2)n2cnnc2n1 | inconclusive: 22.4 µM [inhibitor, partial curve, poor fit] | –
CN(C)CC1CCCCC1OC(=O)c1ccc(Cl)c(Cl)c1 (centres undefined) | inconclusive: 12.6 µM [inhibitor, partial curve] | –
Cn1c(O)c(/C=N/NC(=O)c2ccncc2)c(=O)n(C)c1=S | – | inactive: 27.8% [at 12.7 µM]
O=C(/C=C/C=C/c1ccccc1)CC1(O)C(=O)Nc2ccccc21 (centres undefined) | inconclusive: 56.2 µM [inhibitor, partial curve, poor fit] | –
Cc1cccc(N2C(=O)NC(=O)/C(=C/c3cc4c(cc3[N+](=O)[O-])OCO4)C2=O)c1 | active: 8.91 µM | –
COP(=O)(Cc1ccc(C#N)o1)OC | inconclusive: 89.1 µM [inhibitor, single point] | –
CCOC(=O)C1CCN(/C=C2/C(=O)NC(=O)N(c3ccc(OCC)cc3)C2=O)CC1 | inconclusive: 50.1 µM [inhibitor, partial curve] | –
Cc1ccc(NC(=O)COC(=O)/C=C/c2ccco2)cc1S(=O)(=O)N(C)C | active: 14.1 µM | –
Cc1[nH]c2ccc(OC(F)(F)F)cc2c1CCNCc1cccc([N+](=O)[O-])c1 | active: 50.1 µM | –
Nc1ccc(C2(c3ccc(N)cc3)CCCCC2)cc1 | inconclusive: 44.7 µM [inhibitor, partial curve, poor fit] | –
CC(Cc1ccccc1)NC=O (centres undefined) | – | inactive: 2.33% [at 12.7 µM]
CCN1CCN(C(=O)Cc2c(C)n(C(=O)c3ccc(Cl)cc3)c3ccc(OC)cc23)CC1 | active: 50.1 µM | –
CN1CCN(C(=O)Cc2nc3ccccc3[nH]2)CC1 | inactive | –
CC1=NN(c2ccccc2)C(=O)C1/C=C1/C(=O)NC(=O)N(c2cc(C)cc(C)c2)C1=O (centres undefined) | inconclusive: 28.2 µM [inhibitor, single point] | –
COC(=O)C(O)(c1ccc(N=Cc2ccccc2O)c(C)c1)C(F)(F)F (centres undefined) | inactive | –
CCOC(=O)c1c(C)n(CCN2CCN(C)CC2)c2ccc(OC)cc12 | – | inconclusive: -96.1% [inhibitor]
FC(F)(F)c1ccc2c(c1)NP(=S)(N1CCOCC1)c1nccn1-2 (centres undefined) | inconclusive: 89.1 µM [inhibitor, single point] | –
O=P(Nc1c(Cl)cccc1Cl)(c1ccccc1)c1nc2c(s1)CCCC2 (centres undefined) | – | inactive: 11.9% [at 0.0925 µM]
CN1CCc2nc(SCc3ccccc3Br)c(C#N)cc2C1 | active: 17.8 µM | –
COc1c(C)cc(C(=O)C2CCCN(Cc3cccc(O)c3)C2)cc1C (centres undefined) | inconclusive: 0.708 µM [inhibitor, partial curve, poor fit] | –
Cc1nc(-c2ccc(-c3ccc(C(=O)N4CCc5cc6c(cc54)C4(CCN(C)CC4)CO6)cc3)c(C)c2)no1 | – | inactive: -13.9% [at 12.7 µM]
Cc1ccc(N2C(=O)NC(=O)/C(=C\c3cc(C)n(-c4sc5c(c4C#N)CCCC5)c3C)C2=O)cc1 | inconclusive: 28.2 µM [inhibitor, single point] | –
